Measurements as given in the supplement of paper PMC3334620.
Over roughly 33,000 sequences, “E-score (-0.5 to 0.5)” has its median near -0.035; the highest 2% begin near 0.35. The list shows a part of the results.

What follows are sequences tested against T1, Pdr3 (UniProt P33200) (assay: PBM E-score (8-mer binding enrichment) (E-score (-0.5 to 0.5)); higher = stronger / more preferred TF binding; most listed sequences are background and not binding sites). Settings: protein concentration: 200 nM; construct: GST-full length.
T1 sequence: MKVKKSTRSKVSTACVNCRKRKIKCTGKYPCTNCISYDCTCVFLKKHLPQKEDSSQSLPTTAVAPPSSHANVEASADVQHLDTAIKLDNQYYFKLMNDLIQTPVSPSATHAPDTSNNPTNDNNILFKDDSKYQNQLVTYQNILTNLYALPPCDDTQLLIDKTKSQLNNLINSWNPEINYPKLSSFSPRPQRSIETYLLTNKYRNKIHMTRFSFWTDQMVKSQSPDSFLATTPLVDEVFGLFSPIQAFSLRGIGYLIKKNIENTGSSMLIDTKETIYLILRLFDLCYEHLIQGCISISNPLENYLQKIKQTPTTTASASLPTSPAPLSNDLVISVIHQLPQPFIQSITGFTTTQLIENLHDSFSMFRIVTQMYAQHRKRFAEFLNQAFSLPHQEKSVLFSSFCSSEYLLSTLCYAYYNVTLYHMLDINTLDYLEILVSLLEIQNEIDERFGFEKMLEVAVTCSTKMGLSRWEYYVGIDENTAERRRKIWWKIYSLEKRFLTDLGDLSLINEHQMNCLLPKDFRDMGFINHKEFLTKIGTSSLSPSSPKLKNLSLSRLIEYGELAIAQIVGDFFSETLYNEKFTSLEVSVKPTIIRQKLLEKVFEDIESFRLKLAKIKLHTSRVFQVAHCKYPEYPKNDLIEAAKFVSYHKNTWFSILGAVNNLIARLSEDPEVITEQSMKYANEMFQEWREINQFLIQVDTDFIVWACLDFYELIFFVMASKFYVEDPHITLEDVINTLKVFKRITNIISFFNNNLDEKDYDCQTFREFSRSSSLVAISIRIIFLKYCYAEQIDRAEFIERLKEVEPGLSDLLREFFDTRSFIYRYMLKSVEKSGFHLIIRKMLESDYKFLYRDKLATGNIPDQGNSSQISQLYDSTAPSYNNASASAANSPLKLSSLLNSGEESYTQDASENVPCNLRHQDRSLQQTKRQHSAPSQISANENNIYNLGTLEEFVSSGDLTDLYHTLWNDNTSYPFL
Description: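 Universal 'all 10-mer' protein binding microarrays (Agilent AMADID 015681) probed with GST-tagged S. cerevisiae TFs (full-length or DBD) made by in vitro transcription/translation (PURExpress), about 100-200 nM. Bound TF was detected with fluorescent anti-GST. Each ungapped 8-mer (which stands for itself and its reverse complement) is scored by the PBM enrichment score (E-score), a modified Wilcoxon-Mann-Whitney statistic from -0.5 to +0.5, computed with the Universal PBM Analysis Suite. Scale: above 0.35 generally sequence-specific binding.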

Row | Sequence | PBM E-score
1 | AAAATGCA | -0.0508
2 | CCTTTCCG | 0.387
3 | CTTCACGC | 0.118
4 | CACAGTGC | 0.0384
5 | ATCCACTA | -0.0247
6 | CTCCCGAA | 0.0611
7 | GACACTCC | 0.106
8 | CCAGGAGC | -0.231
9 | ATCCAATG | -0.208
10 | CTCATGGA | -0.205
11 | GGGATGTA | 0.188
12 | AAGAGACC | 0.0108
13 | GTATTGAC | -0.194
14 | ACGACCGA | -0.0449
15 | GGGGAAAC | 0.206
16 | CCTTTTAA | -0.0621
17 | CTGCGATA | -0.00547
18 | AAGAGCCA | -0.0117
19 | GACACATC | -0.0103
20 | GATATAGC | 0.0585
21 | AGATACGG | 0.163
22 | TAAAGGGA | -0.0834
23 | AAGTCCGA | 0.0505
24 | GTTTCTCA | -0.134
25 | TAGAGGCA | -0.263

Row | Sequence | PBM E-score
26 | AAGCTGGA | -0.116
27 | CACCATCA | -0.112
28 | AACTGGTG | -0.182
29 | CAATCGAA | -0.0354
30 | CAAGCCCA | -0.295
31 | AGTAGCAG | -0.124
32 | ATCGCGAG | 0.189
33 | GAAGTTAC | 0.0236
34 | CCAATACA | -0.127
35 | GATTGTAC | -0.286
36 | ACTTATAA | 0.0703
37 | TCTGAGAA | -0.155
38 | ATAAGTCA | -0.0365
39 | CAAGCCCG | 0.0363
40 | ACCTGTGA | -0.0965
41 | AGGTGTGG | -0.0858
42 | GTCTAGGA | -0.256
43 | GTATTTTA | -0.0775
44 | AGATGGCG | 0.0842
45 | CACCATAA | -0.109
46 | ATCATTCG | 0.14
47 | TACCAGCA | -0.135
48 | GGGAGCAC | 0.0715
49 | ACGGTACA | 0.00523
50 | AATGGTCG | 0.0034

Row | Sequence | PBM E-score
51 | AAGGGGGT | -0.405
52 | CAGTCCTC | -0.258
53 | ATCCCGTC | 0.311
54 | CAAGCCGC | 0.0406
55 | ATTGCATG | 0.0911
56 | GCTTTGTA | -0.118
57 | CCCTGCCC | -0.232
58 | AGTAAATG | 0.00726
59 | AACGATCC | -0.0296
60 | ACTTTGAG | -0.207
61 | GACGGCCA | 0.00016
62 | ATAAAGAG | -0.245
63 | AAACGTGT | -0.0729
64 | CACTGATG | -0.206
65 | GCGCCGTA | 0.251
66 | TCATGAGA | -0.22
67 | CAAAGGAG | -0.0645
68 | CATGACGA | 0.0365
69 | ATGAACAC | -0.0256
70 | GCAAAGAA | 0.0386
71 | AAAAATTT | 0.084
72 | ACGAAAAT | 0.0123
73 | CACAGCCC | -0.185
74 | GTGAAGGA | -0.244
75 | CAAACCGA | -0.0979

Row | Sequence | PBM E-score
76 | ACGTATGG | -0.234
77 | ACTTCAAG | -0.0838
78 | ACTGTCTA | -0.168
79 | GCTTCGCA | -0.184
80 | AACAGGGG | -0.0489
81 | AGGGCAAG | 0.0269
82 | ATACGATG | 0.0566
83 | GAGCGAGC | 0.118
84 | AGCCCGAT | 0.0109
85 | TGTCCCAA | -0.0742
86 | ATCGTGGG | 0.0931
87 | ATAGTCTG | -0.136
88 | CGTATCTC | 0.00754
89 | AGAGGCCA | -0.108
90 | GACTCCTC | -0.0434
91 | AGTGCGAG | -0.16
92 | TCGTCTAA | -0.134
93 | CCGGGATC | 0.453
94 | ACCAGAGG | -0.211
95 | ACAATAGG | -0.235
96 | AATAAAGA | 0.0161
97 | AATGCATA | -0.129
98 | AGCGGTAA | 0.045
99 | ATAGGCAC | -0.12
100 | AGTTAGCA | 0.024

Row | Sequence | PBM E-score
101 | ACTATACG | -0.0219
102 | TCTCCAGA | -0.108
103 | AAGAGTGA | -0.204
104 | AGAACACT | 0.0463
105 | GCGTCATA | 0.0182
106 | CTACCAAA | -0.0873
107 | ACCTGTGC | -0.15
108 | GGTTGCTA | -0.0371
109 | CGAGTGAG | 0.013
110 | GTCTTCGA | -0.198
111 | GACTGGGA | 0.0484
112 | ATAGCGAG | -0.0297
113 | GACAGGGC | 0.00102
114 | CTCCCAAC | -0.195
115 | ACTCAGCA | 0.00842
116 | CTCGTCGC | -0.12
117 | AGGTCAAA | -0.235
118 | GGTCAGAA | -0.0505
119 | CCGGAAAC | 0.447
120 | GGAATTAA | 0.212
121 | CATACAAG | -0.174
122 | CCATGAGC | -0.108
123 | CTCCGAAC | 0.278
124 | ATGTGTTG | 0.0321
125 | ACTCTCAG | -0.24

Row | Sequence | PBM E-score
126 | ACCCTGCT | -0.22
127 | CGTCGACA | 0.023
128 | GACAAGCC | 0.0478
129 | GAGTCGAC | 0.0255
130 | AGAAAGTC | -0.104
131 | ATAAATCG | 0.118
132 | ACATAGTC | -0.0637
133 | AGGCTTGG | -0.0735
134 | AACCCGCA | 0.18
135 | ATATCCCA | 0.229
136 | CAGTTGTA | -0.0224
137 | CGTCAATC | 0.018
138 | AGAAGTAG | -0.231
139 | ATTTTGGC | 0.16
140 | ACTGGTTA | -0.0976
141 | ACTTTAAC | -0.197
142 | ACAGGCCA | 0.0519
143 | CTTTCCTA | -0.19
144 | AGGTTGGA | 0.0423
145 | ATCGTGTG | -0.0855
146 | CTGTTGAA | 0.11
147 | TACCCCGA | 0.206
148 | GTACAAAA | -0.131
149 | ACTCAAGG | -0.062
150 | ATTTCACC | -0.0751

Row | Sequence | PBM E-score
151 | CAACGTTC | 0.144
152 | AGGCGACG | -0.0284
153 | GGGGACCC | 0.0311
154 | AATCTCCT | -0.00705
155 | CCCGTGAC | 0.157
156 | GTCGGATA | 0.218
157 | ACTATATC | -0.0346
158 | CATAGCTA | -0.151
159 | ATGGAGAG | -0.295
160 | CGAGGCCA | -0.00131
161 | ACAAGGGC | -0.161
162 | AGTGTAAG | -0.148
163 | CCCTAAGG | -0.18
164 | AGCGGAGA | 0.232
165 | TCAGTCAA | -0.0311
166 | GATTGCGC | 0.218
167 | CAGGGCGC | 0.102
168 | GGCGACAA | 0.0621
169 | ACAGCCAA | -0.0813
170 | GCTCTACA | 0.00648
171 | AGTACTAC | -0.105
172 | AGAGAAGC | -0.00959
